B1: tRNA (parent)
chain: CUCUCGGUAGCCAAGUUGGUUUAAGGCGCAAGACUUUAAUUUAUCACUACGAAAUCUUGAGAUCGGGCGUUCGACUCGCCCCCGGGAGAUUUUUUCCUCGAGCAA

Variants at the background level are over-represented here.

The variants in this data set derive from B1. The data set can be described thus: nonsense suppression (GFP-seq) (ratio to wild type); higher = more function; SUP4oc tRNA, yeast GFP reporter sort-seq. Put shortly: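 Each variant's nonsense suppression (GFPSEQ) is a cell-share-weighted bin median GFP/RFP relative to the unmutated parent tRNA. Yeast with genome-integrated tRNA variants from a ~3% random-mutation library, a galactose-driven GFP ochre reporter and RFP were grown in raffinose/galactose medium with 80 mg/L adenine, then sorted into GFP/RFP bins for Illumina sequencing. Variants needed ≥100 reads and ≥30 cells.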
For the variant CUCUCGGUAGCCAAGUUGGUUUAAGGCGCAAGACUUUAAUUUAUCACUACGAAAUCUUGAUAUCGGGCGUACGACUCGCCCCCGGAAGAUUUUUUCCUCGAGCAA [G61U U71A G86A], the nonsense suppression was at most 0.026. Consider CUCUCGGUAGCCAAGUACGUUUAAGGCGCAGGACUUUAAUUUAUCACUACGAAAUCUUGAAAUCCGGUGUUCGACUCGCCCCCGGGAGAUUUUUUCCUCGAGCAA [U17A G18C A31G G61A G65C C68U], for which the nonsense suppression is at most 0.026. To CUCUCGGUAGCCAAGUUGCUUUAAGGCGCAAGACUUUAAUUUAUCACUACGAAAUCUUGUGAUCGGGCGUUCGACUCGCCUCCGGGAGAUUUUUUCCUCGAGCAA [G19C A60U C81U] belongs at most 0.026. Regarding CUCUCGGUAGCCAAGUUGGUUUAAGGCGCAAGACUUUAAUUUAUCACUACGAAAUCUUGAAAUCGGGCGAUCGACUCGCGCCCGGGCGAUUUUUUCCUCGAGCAA [G61A U70A C80G A87C], the nonsense suppression is at most 0.026. CUCACGGUAGCCAAGUUGGUUUAAGGCGCAAGUCUUUAAUUUAUCACUACGAAAUCUUGAGAUCGGGCGUUCGACUCGCCCCCGGGAGAUUUUUUCCUCGAGCAA [U4A A33U]: the nonsense suppression is at most 0.026. Regarding CUCUCGGUAGCAAAGUUGGUUUAAGGUGCAAGACUUUAAUUUAUCACUACGAAAUAUUGAGAUCGGGCGUUCGACUCGCCCCCGGAAGAUUUUUUCCUCGAGCAA [C12A C27U C56A G86A], the nonsense suppression is at most 0.026. To CUUUCGGUAGCCAAGUUGGUUUAAGGCGCAAGACUUUAAUUUAUCACUACGAACUCUUGAGAUCGGGCGUUCGACUCGCCCCCGGGAUAUUUUUUCCUCGAGCAA [C3U A54C G88U] belongs at most 0.026; to CUCUCGGUAGCCAAGUGGGUUUAAGGCGCAAGACUUUAAUUUAUCACUACGAAAUCUUGAGAUCGGCCGUUCGACUCGCCCCCUGGUGAUUUUUUCCUCGAGCAA [U17G G67C G84U A87U], at most 0.026. To CUCUCGGUAGCCAAGUUGGUUUAAGGCGCAAGACUUUAAUUUAUCACUACGAAAUCUUGAGAUCGGGCGUUCCAAUCGCCCCCGGGAGAUUUUUUCCUCGAGCAA [G73C C75A] belongs at most 0.026; to CUCUCGGUAGCCAAGUUGGCUUAAGGCGCAAGACUUUAAUUUAUCACUACGAAAUCUUGAGAUCGGGCGUUCGACUCGCCCCCGGGGGAUUUUUUCCUCGAGCAA [U20C A87G], 0.213. As for CUCUCGGUAGCCAAGUUGCUUUAACGCGCAAGAUUUUAAUUUAUCACUACGAAAUCUUGAGAUCGGGCGUUCGACUCGCCCCCGGGAGAUUUUUUCCUCGAGCAA [G19C G25C C34U], the nonsense suppression was at most 0.026.

CUCUCGGUAGCCAAGUUGGUGUCAGGCGCAAGAGUUUAAUUUAUCACUACGAAAUCUUGAGAUCGGGUGUUCGACUCGCCCCCGGGAGAUUUUUUCCUCGAGCAA [U21G A23C C34G C68U]: the nonsense suppression is at most 0.026. For CUCUCGGUAGCCAAGUUGGUUUCAGGCGCAAAACUUUAAUUUAUCACUACGAAAUCUUGAGAUCGGGCGUUCGAUUCGCCCCCGGGAGAUUUUUUCCUCGAGCAA [A23C G32A C75U], the nonsense suppression was at most 0.026. Take CUCUCGGUAGCCAAGUGGGUUUAAGGCGCAAGACUUUAAUUUAUCACUACGAAAUCUUGAGAUCGGGCGUUCGACUCGCCACCGGGAGCUUUUUUCCUCGAGCAA [U17G C81A A89C]: the nonsense suppression was at most 0.026. In the case of CUCUCGGUAGCCAAGUUGGUUUAAGGCGCAAGACUUUAAUUUAUCACUACGAAAUCUUGAGAUCGGGCGUUCGACCCACGCCCGGGAGAUUUUUUCCUCGAGCAA [U76C G78A C80G], the nonsense suppression was at most 0.026. For CUCUCGGUAGCCGAGUUGGUUUAAGGCGGAAGACUUUAAUUUAUCACUACGAAAUCUUGAGAUCGGGCGUUCGACUCGCCCCCGGGAGAUUUUUUCCUCGAGCAA [A13G C29G] the value was at most 0.026; for CUUUCGGUAGCCAAGUUGGUUUAAGGCGCAAGACUUUAAUUUAUCACUACGAAAUCUUGCGAUCGGGCGUUCGACUCGCCCACGGGAGAUUUUUUCCUCGAGCAA [C3U A60C C82A], at most 0.026; for CUCUCGGUAGCCAAGUUGGUUUAAGGCGCAAGACUUUAAUUUAUCACUACGAAAUCUUGAGAUAUGGCGUUCGACUCGCCCCCGGGAGAUUUUUUCCUCGAGCAA [C64A G65U], at most 0.026. Consider CUGUCGGUAGCCAAGUUGGUUUAAGGCGCACGACUUUAAUUUAUCACUACGAAAUCUUAAGAUCGGGCGUUCGACUCGCCCCCGGGUGAUUUUUUCCUCGAGCAA [C3G A31C G59A A87U], for which the nonsense suppression was at most 0.026. Regarding CUCUCGGUAGCCAAGUUGGUUUACGGCGCAAGACUUUAAUUUAUCACUACGAAAUAUUGAGCUCGGGCGUUCGACUCGCCCCCGGGAGAUUUUUUCCUCGAGCAA [A24C C56A A62C], the nonsense suppression was at most 0.026. Turning to CUCUCGGUAGCCUAGUUGGUUUAAGGCGCAAGACUUUAAUUUAUCACUACGAAAUCUUGAGAUCGGGCGUUCGACUCGCCCCCGGAAGAUUUUUUCCUCGAGCAA [A13U G86A], the nonsense suppression was 0.0315.

In the case of CUCUCGGUAGCCAAGUUGGUUUAAGGCGCAAGACUUUAAUUUAUCACUACGAAAUCUUGAGAUCGGGCGUGCGACUCGCCCCCGAGAGAUUUUUUCCUCGAGCAA [U71G G85A], the nonsense suppression is at most 0.026. As for CUCACGGUAGCCAAGUUGGUUUAAGGCGCAAGGCUUUAAUUUAUCACUACGAAAUCUUGAGAUCGGGCGUUCCACUCGCCCCCGGGAGAUUUUUUCCUCGAGCAA [U4A A33G G73C], the nonsense suppression was at most 0.026. As to CUCUCGGUUGCCAAGUUGGUUUAAGGCGACAGACUUUAAUUUAUCACUACGAAAUCUUGAGAGCGGGCGUUCGACUCGCCCCCGGGAGAUUUUUUCCUCGAGCAA [A9U C29A A30C U63G], the nonsense suppression is at most 0.026. Turning to CCCUCGGUAGCCAAGUUGGUUUAAGGCGCAAAACUUUAAUUUAUCACUACGAAAUCUUGAGAUCGGGCGUUCGACUCGCCCCCAGGAGAUUUUUUCCUCGAGCAA [U2C G32A G84A], the nonsense suppression was at most 0.026.

On to CUCUCGGUAGCCUAGUUGGUUCAAGGCGCAAGACUUUAAUUUAUCACUACGAAAUCUUGACAUCGGGCGUUCGACUCGCCCCCCGGAGAUUUUUUCCUCGAGCAA [A13U U22C G61C G84C], for which the nonsense suppression is at most 0.026.

With CUCUCGCUAGCCGAGUUGGUGUAAGGCGCAAGACUUUAAUUUAUCACUACGAAAUCUUGAGAACGGGCGUUCGACUCGCACUCGGGAGAUUUUUUCCUCGAGCAA [G7C A13G U21G U63A C80A C82U], the nonsense suppression is at most 0.026.

These data come from the RNAGym collection of RNA variant scans (doi:10.1101/gad.245936.114).
